# Assay results reported in PubChem BioAssay (NCATS).
# “And” between values parts separate entries of the source, which are not always exact repeats. Equal values may be shown once. Inconclusive results, whose numbers are uncertain, are shown with a selection of clear calls. A potency beside an inconclusive call is a rough fit, not a confirmed value. The source made the active and inactive calls. Calls come from the whole dose curve; as a rule, active = well fitted curve in the direction sought with a large enough effect; inconclusive = small, poorly fitted or top-dose-only effect, or another doubt; inactive = no such curve, though single readings can be large; an effect the other way counts as inactive or inconclusive.
# Columns and labels:
# [1] = Viability qHTS for spleen associated tyrosine kinase inhibitor (SYKi) naive MV4-11 cells (AID 1963823); settings: MV4-11 AML viability, CellTiter-Glo luminescence, 72 h; series mostly up to 45 µM; note: nearly all actives have a fitted effect of over 40% in size
# Method in brief: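 CellTiter-Glo luminescence, 10 min room-temperature incubation, gave viability. Cells: naive MV4-11 (500/well), treated 72 hr at 37 C, 5% CO2.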
# [2] = Quantitative highthroughput screen to assess conditional lethalithy of NOMO1 cells grown in RPMI1640 with untreated serum (RPMI+s) (AID 1963876); settings: NOMO1 AML cells in RPMI+serum, CellTiter-Glo viability, 48 h; viability: at 45.8 µM (top of the series); note: nearly all actives have a fitted effect of over 35% in size
# Method in brief: (§1)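 Each medium arm—HPLM with 10% dialyzed FBS, or RPMI1640 with 5 mM glucose and 10% untreated or dialyzed FBS—was screened against an 11-point, 3-fold compound titration for 48 h at 37 °C, with CellTiter-Glo luminescence as endpoint.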
# [3] = Quantitative highthroughput screen to assess conditional lethalithy of NOMO1 cells grown in RPMI1640 with dialyzed fetal bovine serum (RPMI+ds) (AID 1963877); settings: NOMO1 in RPMI+dialyzed FBS viability, ATP luminescence, 48 h; series mostly up to 45.8 µM; note: nearly all actives have a fitted effect of over 30% in size
# Method in brief: as §1
# [4] = Quantitative highthroughput screen to assess conditional lethalithy of NOMO1 cells grown in Human Plasma-Like Medium with dialyzed fetal bovine serum (HPLM+ds) (AID 1963878); settings: NOMO1 AML cells in HPLM+ds, CellTiter-Glo viability, 48 h; viability: at 45.8 µM (top of the series); note: nearly all actives have a fitted effect of over 35% in size
# Method in brief: as §1
# [5] = Quantitative highthroughput screen to assess conditional lethalithy of SEM cells grown in Human Plasma-Like Medium with dialyzed fetal bovine serum (HPLM+ds) (AID 1963882); settings: SEM B-ALL cells in HPLM+ds, CellTiter-Glo viability, 48 h; series mostly up to 45.8 µM; note: nearly all actives have a fitted effect of over 35% in size
# Method in brief: as §1
# [6] = Cellular viability qHTS for adrenocortical cancer (ACC) cell line SW-13 (AID 1963989); settings: SW-13 ACC cells viability, CellTiter-Glo, 48 h; activity (max response): stronger effect = lower value; note: nearly all actives have a fitted effect of over 65% in size
# Method in brief: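 Luminescent ATP read-out (CellTiter-Glo, 20 min at room temperature) measured metabolically competent SW-13 cells after 48 h compound treatment. Final concentrations spanned up to 46 uM; bortezomib served as positive control.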
# [7] = Quantitative highthroughput screen to assess conditional lethalithy of P12 Ichikawa cells grown in Human Plasma-Like Medium with dialyzed fetal bovine serum (HPLM+ds) (AID 1963879); settings: ATP luminescence, 48 h; Potency: viability; series mostly up to 45.8 µM; note: nearly all actives have a fitted effect of over 35% in size
# Method in brief: as §1
# [8] = Quantitative highthroughput screen to assess conditional lethalithy of SEM cells grown in RPMI1640 with unreated serum (RPMI+s) (AID 1963883); settings: SEM B-ALL cells, CellTiter-Glo viability, 48 h; viability: at 45.8 µM (top of the series); note: nearly all actives have a fitted effect of over 35% in size
# Method in brief: as §1
# [9] = Quantitative highthroughput screen to assess conditional lethalithy of SEM cells grown in RPMI1640 with dialyzed fetal bovine serum (RPMI+ds) (AID 1963884); settings: SEM B-ALL cells, RPMI+dialyzed FBS, CellTiter-Glo viability, 48 h; viability: at 45.8 µM (top of the series); note: nearly all actives have a fitted effect of over 35% in size
# Method in brief: as §1
# [10] = Quantitative highthroughput screen to assess conditional lethalithy of P12 Ichikawa cells grown in RPMI1640 with dialyzed fetal bovine serum (RPMI+ds) (AID 1963880); settings: ATP luminescence, 48 h; Potency: P12-Ichikawa viability; series mostly up to 45.8 µM; note: nearly all actives have a fitted effect of over 35% in size
# Method in brief: as §1
# [11] = Quantitative highthroughput screen to assess conditional lethalithy of P12 Ichikawa cells grown in RPMI1640 with untreated serum (RPMI+s) (AID 1963881); settings: ATP luminescence, 48 h; Potency: viability; series mostly up to 45.8 µM; note: nearly all actives have a fitted effect of over 35% in size
# Method in brief: as §1
# [12] = Cellular viability qHTS for adrenocortical cancer (ACC) cell line NCI-H295R (AID 1963990); settings: CellTiter-Glo ATP luminescence, 48 h; series mostly up to 46.1 µM; note: nearly all actives have a fitted effect of over 60% in size
# Method in brief: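 IC50 and maximal efficacy derive from four-parameter logistic modelling of titration curves, with reads scaled between DMSO-only wells (0%) and doxorubicin hydrochloride (100% inhibition). Compounds spanned up to 46 uM over 48 h.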
# Potency is the fitted concentration of half-maximal effect; tags give direction and shape of the fitted curve.
SMILES,Potency [1],Potency [2],Potency [3],Potency [4],Potency [5],Potency [6],Potency [7],Potency [8],Potency [9],Potency [10],Potency [11],Potency [12]
O=C(Cc1ccc(-c2ccc(OCCN3CCOCC3)cc2)cn1)NCc1ccccc1,active: 231 nM and active: 93.4 nM,"inconclusive: 0.059 µM [cytotoxic, full curve]","inconclusive: 0.0469 µM [cytotoxic, full curve]","inconclusive: 0.0332 µM [cytotoxic, full curve]",active: 0.0264 µM,active: 0.199 µM,,,,,,
CC(C)c1noc(N2CCC(COc3ccc(-c4ccc(S(C)(=O)=O)cc4)nc3)CC2)n1,"inconclusive: 2.31 µM [cytotoxic, full curve]",inactive,inactive,,inactive,,inactive,"inconclusive: 0.105 µM [cytotoxic, full curve, poor fit]","inconclusive: 0.0935 µM [cytotoxic, full curve, poor fit]",,,
COc1cc2ncnc(Nc3cccc(Cl)c3)c2cc1OC,active: 4.61 µM and active: 5.17 µM,"inconclusive: 1.18 µM [cytotoxic, full curve]","inconclusive: 0.372 µM [cytotoxic, full curve]",,,,,active: 0.166 µM,active: 0.372 µM,"inconclusive: 0.469 µM [cytotoxic, full curve]","inconclusive: 0.469 µM [cytotoxic, full curve]","inconclusive: 31.6 µM [cytotoxic, partial curve]"
Cc1cnc(NC(=O)Nc2cc(Br)c(C)cc2OC[C@@H]2CNCCO2)cn1,active: 1.32 µM,"inconclusive: 4.18 µM [cytotoxic, partial curve, poor fit]",active: 1.66 µM,,active: 0.526 µM,"inconclusive: 22.4 µM [cytotoxic, single point]","inconclusive: 23.5 µM [cytotoxic, partial curve, poor fit]",,active: 0.59 µM,active: 13.2 µM,"inconclusive: 23.5 µM [cytotoxic, partial curve, poor fit]",
CC1(C)CCC(CN2CCN(c3ccc(C(=O)NS(=O)(=O)c4ccc(NCC5CCOCC5)c([N+](=O)[O-])c4)c(Oc4cnc5[nH]ccc5c4)c3)CC2)=C(c2ccc(Cl)cc2)C1,"inconclusive: 0.0317 µM [cytotoxic, full curve]","inconclusive: 4.69 µM [cytotoxic, partial curve]",,"inconclusive: 0.264 µM [cytotoxic, full curve]",,,"inconclusive: 14.8 µM [cytotoxic, partial curve]",,,"inconclusive: 14.8 µM [cytotoxic, partial curve, poor fit]","inconclusive: 16.6 µM [cytotoxic, partial curve, poor fit]",
COc1cc2c(Nc3ccc(NC(=O)c4ccccc4)cc3)ncnc2cc1OCCCN1CCOCC1,active: 1.16 µM and active: 1.86 µM,"inconclusive: 2.64 µM [cytotoxic, full curve]","inconclusive: 3.72 µM [cytotoxic, full curve]",,"inconclusive: 2.64 µM [cytotoxic, full curve]",,,,,,,active: 15.8 µM
CC(C)c1cc(C(=O)N2Cc3ccc(CN4CCN(C)CC4)cc3C2)c(O)cc1O,"inconclusive: 20.6 nM [cytotoxic, full curve] and active: 33.2 nM","inconclusive: 0.59 µM [cytotoxic, full curve]",,"inconclusive: 0.59 µM [cytotoxic, full curve]","inconclusive: 0.296 µM [cytotoxic, full curve, poor fit]",,"inconclusive: 0.743 µM [cytotoxic, full curve]","inconclusive: 0.372 µM [cytotoxic, full curve, poor fit]","inconclusive: 0.296 µM [cytotoxic, full curve, poor fit]","inconclusive: 0.372 µM [cytotoxic, full curve]","inconclusive: 0.332 µM [cytotoxic, full curve]",
C[C@@H]1CN(CC(=O)Nc2ccc3c(c2)Cc2cccc(-c4cc(=O)cc(N5CCOCC5)o4)c2S3)C[C@H](C)O1,active: 8.33 µM,"inconclusive: 9.35 µM [cytotoxic, full curve]","inconclusive: 13.2 µM [cytotoxic, partial curve]",,"inconclusive: 18.7 µM [cytotoxic, partial curve, poor fit]",,"inconclusive: 16.6 µM [cytotoxic, partial curve, poor fit]","inconclusive: 14.8 µM [cytotoxic, partial curve, poor fit]","inconclusive: 11.8 µM [cytotoxic, partial curve, poor fit]","inconclusive: 16.6 µM [cytotoxic, partial curve]","inconclusive: 20.9 µM [cytotoxic, partial curve, poor fit]","inconclusive: 31.6 µM [cytotoxic, single point]"
Nc1ccn([C@H]2CC[C@@H](CO)O2)c(=O)n1,inactive,"inconclusive: 33.2 µM [cytotoxic, single point]","inconclusive: 29.6 µM [cytotoxic, single point]",,"inconclusive: 11.8 µM [cytotoxic, single point]",,"inconclusive: 37.2 µM [cytotoxic, single point]",,active: 7.43 µM,"inconclusive: 33.2 µM [cytotoxic, single point]","inconclusive: 33.2 µM [cytotoxic, single point]",
CN(C)[C@@H](CCOc1cccc2ccccc12)c1ccccc1,"inconclusive: 15 µM [cytotoxic, partial curve]","inconclusive: 33.2 µM [cytotoxic, partial curve, poor fit]","inconclusive: 20.9 µM [cytotoxic, partial curve]",,"inconclusive: 33.2 µM [cytotoxic, partial curve, poor fit]","inconclusive: 18.4 µM [cytotoxic, single point]",,"inconclusive: 37.2 µM [cytotoxic, single point]",,"inconclusive: 37.2 µM [cytotoxic, single point]",inactive,
CCn1cc(C(=O)O)c(=O)c2cc(F)c(N3CCNCC3)nc21,active: 0.0335 µM,"inconclusive: 29.6 µM [cytotoxic, single point]","inconclusive: 23.5 µM [cytotoxic, partial curve]","inconclusive: 3.72 µM [cytotoxic, full curve]",,,,inactive,,,,inactive
OC[C@H]1OC(O)C[C@@H](O)[C@H]1O (stereo partly specified),"inconclusive: 20.9 µM [rising, single point]","inconclusive: 29.6 µM [cytotoxic, single point]","inconclusive: 29.6 µM [cytotoxic, single point]","inconclusive: 29.6 µM [cytotoxic, single point]",,,,,inactive,,inactive,
COc1ccc(-c2cc3c(C)nc(N)nc3n(C3CCC(OCCO)CC3)c2=O)cn1 (stereo unspecified),"inconclusive: 206 nM [cytotoxic, full curve] and active: 105 nM","inconclusive: 0.935 µM [cytotoxic, full curve]","inconclusive: 0.296 µM [cytotoxic, full curve]",,,active: 1.12 µM,"inconclusive: 0.059 µM [cytotoxic, full curve]",active: 0.469 µM,active: 1.87 µM,"inconclusive: 0.0469 µM [cytotoxic, full curve]","inconclusive: 0.0526 µM [cytotoxic, full curve]",
NC1(Cc2ccc(Cl)cc2)CCN(c2ncnc3[nH]ccc23)CC1,active: 3.72 µM,active: 10.5 µM,active: 9.35 µM,,active: 6.62 µM,"inconclusive: 22.4 µM [cytotoxic, partial curve]","inconclusive: 14.8 µM [cytotoxic, partial curve]",,active: 7.43 µM,"inconclusive: 5.9 µM [cytotoxic, partial curve]","inconclusive: 4.18 µM [cytotoxic, partial curve]",
CN1CCN(c2cc(C(=O)Nc3ccc4c(c3)-c3c(c(C(N)=O)nn3-c3ccc(F)cc3)CC4)c(Cl)cn2)CC1,active: 4.11 µM,"inconclusive: 33.2 µM [cytotoxic, single point]","inconclusive: 37.2 µM [cytotoxic, single point]",,,,"inconclusive: 29.6 µM [cytotoxic, single point]","inconclusive: 23.5 µM [cytotoxic, partial curve, poor fit]","inconclusive: 33.2 µM [cytotoxic, single point]","inconclusive: 37.2 µM [cytotoxic, single point]","inconclusive: 37.2 µM [cytotoxic, single point]",
NS(=O)(=O)c1cccc2c1C(=O)c1cccc(O)c1C2=O,active: 0.525 µM,"inconclusive: 37.2 µM [cytotoxic, single point]",active: 23.5 µM,,active: 6.62 µM,active: 1.26 µM,,active: 1.48 µM,,,"inconclusive: 33.2 µM [cytotoxic, single point]",
